Data from the supplement of paper PMC4604168 (melanoma cell lines).
The list shows a part of the results. Single values are uncertain, as repeats are few or missing.

Assays:
Experiment in all cases: cell count relative to DMSO control; melanoma cells; higher = more viable cells
Settings in all cases: library dose: low library concentration; 72 h
MZ2-MEL = test system: MZ2-MEL
MeWo = test system: MeWo
RPMI7951 = test system: RPMI7951
RVH-421 = test system: RVH-421
SkMel28 = test system: SkMel28
SkMel2 = test system: SkMel2
SkMel30 = test system: SkMel30
SkMel5 = test system: SkMel5
UACC257 = test system: UACC257
UACC62 = test system: UACC62
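Note: cell number obtained by counting DAPI-stained nuclei in high-throughput microscope images with image analysis software, screen run in 1,536-well plates.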

| Structure (SMILES) | cell count (MZ2-MEL) [%] | cell count (MeWo) [%] | cell count (RPMI7951) [%] | cell count (RVH-421) [%] | cell count (SkMel28) [%] | cell count (SkMel2) [%] | cell count (SkMel30) [%] | cell count (SkMel5) [%] | cell count (UACC257) [%] | cell count (UACC62) [%] |
| --- | --- | --- | --- | --- | --- | --- | --- | --- | --- | --- |
| CS(=O)(=O)CCNCc1ccc(-c2ccc3ncnc(Nc4ccc(OCc5cccc(F)c5)c(Cl)c4)c3c2)o1 [lapatinib] + COc1cc2ncnc(Nc3ccc(Oc4ccccc4)cc3)c2cc1OC [SrcI1] (first compound 0.8 µM, partner dose 2 µM) | 89.7 | 109 | 92.4 | 112 | 87.1 | 98.9 | 92.1 | 95 | 118 | 108 |
| C=CCNC1=C2C[C@@H](C)C[C@H](OC)[C@H](O)[C@@H](C)/C=C(\C)[C@H](OC(N)=O)[C@@H](OC)/C=C\C=C(/C)C(=O)NC(=CC1=O)C2=O [Tanespimycin] + c1cc(-c2cnn3cc(-c4ccc(OCCN5CCCCC5)cc4)cnc23)ccn1 [Dorsomorphin] (first compound 0.002 µM, partner dose 0.4 µM) | 106 | 104 | 94.4 | 162 | 111 | 107 | 114 | 97.3 | 87.7 | 97.6 |
| C[C@@H](Oc1cc(-c2cnn(C3CCNCC3)c2)cnc1N)c1c(Cl)ccc(F)c1Cl [Crizotinib] + CC(C)(C)c1cnc(CSc2cnc(NC(=O)C3CCNCC3)s2)o1 [SNS-032] (first compound 0.2 µM, partner dose 0.01 µM) | 100 | 93.6 | 110 | 115 | 84.2 | 94 | 83 | 95.1 | 61 | 80.6 |
| C[C@@H](Oc1cc(-c2cnn(C3CCNCC3)c2)cnc1N)c1c(Cl)ccc(F)c1Cl [Crizotinib] + O=c1cc(-c2cccc3c2Sc2ccccc2S3)oc(N2CCOCC2)c1 [KU55933] (first compound 0.2 µM, partner dose 1 µM) | 98.8 | 91.8 | 92.5 | 100 | 85.2 | 96.5 | 82.5 | 97.4 | 84.5 | 106 |
| CS(=O)(=O)CCNCc1ccc(-c2ccc3ncnc(Nc4ccc(OCc5cccc(F)c5)c(Cl)c4)c3c2)o1 [lapatinib] + Oc1cc(-c2nc(-c3ccccc3)[nH]c2-c2ccncc2)ccc1Cl [L779450] (first compound 0.8 µM, partner dose 0.2 µM) | 73.3 | 89.7 | 72.9 | 133 | 89 | 99 | 78.4 | 104 | 95.7 | 76.6 |
| C=CCNC1=C2C[C@@H](C)C[C@H](OC)[C@H](O)[C@@H](C)/C=C(\C)[C@H](OC(N)=O)[C@@H](OC)/C=C\C=C(/C)C(=O)NC(=CC1=O)C2=O [Tanespimycin] + COc1ccc(COc2ccc(Cc3cnc(N)nc3N)cc2OC)cc1 [GW2580] (first compound 0.002 µM, partner dose 1 µM) | 94.9 | 97.2 | 106 | 101 | 84.3 | 108 | 99.3 | 95.8 | 61.9 | 89.7 |
| C=CCNC1=C2C[C@@H](C)C[C@H](OC)[C@H](O)[C@@H](C)/C=C(\C)[C@H](OC(N)=O)[C@@H](OC)/C=C\C=C(/C)C(=O)NC(=CC1=O)C2=O [Tanespimycin] + O=C(O)c1ccc(-c2c[nH]c3ncc(-c4ccccc4)cc23)cc1C1CCCC1 [GSK650394] (first compound 0.002 µM, partner dose 0.16 µM) | 91.3 | 87.7 | 88.3 | 107 | 110 | 84.1 | 104 | 99.9 | 75.9 | 84.7 |
| C=CCNC1=C2C[C@@H](C)C[C@H](OC)[C@H](O)[C@@H](C)/C=C(\C)[C@H](OC(N)=O)[C@@H](OC)/C=C\C=C(/C)C(=O)NC(=CC1=O)C2=O [Tanespimycin] + O=c1cc(-c2cccc3c2Sc2ccccc2S3)oc(N2CCOCC2)c1 [KU55933] (first compound 0.002 µM, partner dose 1 µM) | 99.1 | 99.7 | 78.9 | 96.3 | 83.3 | 93.6 | 92.8 | 106 | 111 | 95.1 |
| CNC(=O)c1cc(Oc2ccc(NC(=O)Nc3ccc(Cl)c(C(F)(F)F)c3)cc2)ccn1 [sorafenib] + CCc1ccc(CCOc2ccc(CC3SC(=O)NC3=O)cc2)nc1 [pioglitazone] (first compound 0.4 µM, partner dose 2 µM) | 94.9 | 100 | 92.9 | 94.4 | 96.7 | 89.2 | 97.1 | 99.7 | 91.7 | 98.2 |
| CS(=O)(=O)CCNCc1ccc(-c2ccc3ncnc(Nc4ccc(OCc5cccc(F)c5)c(Cl)c4)c3c2)o1 [lapatinib] + CO[C@@H]1[C@H](N(C)C(=O)c2ccccc2)C[C@H]2O[C@]1(C)n1c3ccccc3c3c4c(c5c6ccccc6n2c5c31)C(=O)NC4 [Midostaurin] (first compound 0.8 µM, partner dose 0.08 µM) | 91.6 | 76.6 | 85.5 | 76.8 | 82.9 | 82.1 | 87.6 | 78.8 | 78.7 | 81.7 |
